Test system: rumen fluid

## CC[C@@H](C(=O)O)[C@@H]1O[C@@H]([C@@H](C)[C@H](O)[C@H](C)C(=O)[C@H](CC)[C@H]2O[C@]3(C=C[C@@H](O)[C@]4(CC[C@@](C)([C@H]5CC[C@](O)(CC)[C@H](C)O5)O4)O3)[C@H](C)C[C@@H]2C)[C@@H](C)C[C@@H]1C [Narasin, reference compound]
  Relative levels of propionate (C3) to acetate + butyrate (C2 + C4): 167%
